# Laboratory results: patent US12419305B2, “Antimicrobial compositions” (Firmenich SA, priority 2018, dated 2025)
# The name of at least one read-out is uncertain.
# Tested on: E. coli ATCC 10536
# Assay: BCT test (bacterial contact time), 45 s, log reduction / effect fraction; CI by Compusyn
# Assay type: cell-based, Escherichia coli
# Procedure, shortened: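 Read-out: log CFU from turbidity (OD600) of serially diluted wells after 37° C, 180 rpm growth; log reduction relative to ethanol-only control. Cells at ~1×10^8/mL met ethanolic test compositions 1:1 for the listed contact time. CI from concentrations and effect fractions; <0.9 synergy, 0.9–1.0 additive, >1.0 antagonism.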
# [1] = dose 0.05% w/v, contact 45 s, 20% EtOH
# [2] = dose 0.07% w/v, contact 45 s, 20% EtOH
# [3] = dose 0.090 % w/v, 45 s, in 20% EtOH
# [4] = dose 0.09% w/v, contact 45 s, 20% EtOH
smiles,measurement,setting,value
"CC(C)=CCC/C(C)=C\CO [Nerol, (Z)-3,7-dimethyl-2,6-octadien-1-ol]",Effect fraction,"dose 0.050 % w/v, 45 s, in 20% EtOH",0.15
same,Effect fraction,[1],0.02
same,Effect fraction,"dose 0.060 % w/v, 45 s, in 20% EtOH",0.44
same,Effect fraction,"dose 0.06% w/v, contact 45 s, 20% EtOH",0.44
same,Effect fraction,"dose 0.070 % w/v, 45 s, in 20% EtOH",0.92
same,Effect fraction,[2],0.95
same,Effect fraction,"dose 0.080 % w/v, 45 s, in 20% EtOH",1.00
same,Effect fraction,"dose 0.08% w/v, contact 45 s, 20% EtOH",1.00
same,Effect fraction,[3],1.00
same,Effect fraction,[4],1.00
"CC(CCO)CCc1ccccc1 (stereo not shown) [Phenylhexanol, 3-methyl-5-phenyl-1-pentanol]",Effect fraction,"dose 0.02% w/v, contact 45 s, 20% EtOH",−0.02
same,Effect fraction,"dose 0.03% w/v, contact 45 s, 20% EtOH",0.01
same,Effect fraction,"dose 0.035% w/v, contact 45 s, 20% EtOH",0.15
same,Effect fraction,"dose 0.04% w/v, contact 45 s, 20% EtOH",0.32
same,Effect fraction,[1],0.97
"C/C=C/c1ccc(O)c(OC)c1 [Isoeugenol, 2-Methoxy-4-(prop-1-en-1-yl)phenol]",Effect fraction,[1],0.01
same,Effect fraction,[2],0.11
same,Effect fraction,[4],0.39
same,Effect fraction,"dose 0.1% w/v, contact 45 s, 20% EtOH",0.66
same,Effect fraction,"dose 0.12% w/v, contact 45 s, 20% EtOH",1.00
"C=CCc1ccc(O)c(OC)c1 [Eugenol F, 2-Methoxy-4-(prop-2-en-1-yl)phenol]",Effect fraction,"dose 0.075 % w/v, 45 s, in 20% EtOH",0.00
same,Effect fraction,[3],0.03
same,Effect fraction,"dose 0.100 % w/v, 45 s, in 20% EtOH",0.12
same,Effect fraction,"dose 0.125 % w/v, 45 s, in 20% EtOH",0.34
same,Effect fraction,"dose 0.150 % w/v, 45 s, in 20% EtOH",1.00
